Data published in PubChem BioAssay (NCATS).
Where “and” joins values, the source holds several entries; their conditions need not be identical. Equal entries are not always repeated. For part of these data: A note “side channel” means that the fit belongs to a control or component signal, not to the main read-out. Calls of active or inactive are those of the source. Entries that show only a call come without a potency. Unless noted, calls follow the shape of the dose curve; as a rule, active = well fitted curve in the direction sought with a large enough effect; inconclusive = small, poorly fitted or top-dose-only effect, or another doubt; inactive = no such curve, though single readings can be large; an effect the other way counts as inactive or inconclusive.

How the values were obtained:
[1] = molecular target: Ubiquitin carboxyl-terminal hydrolase 1 (Homo sapiens) (UniProt O94782); assay: Inhibitors of USP1/UAF1: Pilot qHTS (AID 504865); also: potency is read from the fitted curve at half-maximal effect;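 also: rhodamine fluorescence freed from ubiquitin-rhodamine substrate followed over time; nearly all actives have a fitted effect of over 35% in size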; as to activity change, negative = inhibition: top concentration of the series differs between compounds
Chain of UniProt O94782 (O94782 whole entry, looked up): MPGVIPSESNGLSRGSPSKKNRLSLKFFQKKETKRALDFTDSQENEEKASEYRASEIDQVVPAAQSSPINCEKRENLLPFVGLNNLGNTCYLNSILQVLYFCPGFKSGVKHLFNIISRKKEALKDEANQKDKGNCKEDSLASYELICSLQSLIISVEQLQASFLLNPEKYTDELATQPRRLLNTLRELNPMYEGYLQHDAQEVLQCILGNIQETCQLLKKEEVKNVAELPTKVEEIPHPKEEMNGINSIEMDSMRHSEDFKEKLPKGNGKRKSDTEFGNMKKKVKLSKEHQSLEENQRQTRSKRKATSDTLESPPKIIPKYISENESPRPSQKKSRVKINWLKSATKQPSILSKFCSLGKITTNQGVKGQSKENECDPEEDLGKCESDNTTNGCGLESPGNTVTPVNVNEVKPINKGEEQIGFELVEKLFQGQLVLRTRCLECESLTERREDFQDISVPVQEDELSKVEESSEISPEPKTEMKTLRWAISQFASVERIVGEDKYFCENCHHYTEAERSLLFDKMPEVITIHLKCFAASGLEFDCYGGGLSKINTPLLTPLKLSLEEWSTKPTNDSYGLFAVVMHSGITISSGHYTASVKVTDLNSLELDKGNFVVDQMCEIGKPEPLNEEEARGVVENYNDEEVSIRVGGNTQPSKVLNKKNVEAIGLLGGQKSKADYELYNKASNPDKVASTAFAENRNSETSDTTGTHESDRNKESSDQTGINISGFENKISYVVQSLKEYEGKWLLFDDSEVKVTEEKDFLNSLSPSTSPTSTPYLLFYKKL
Outline: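 Enzyme-free wells gave the negative control, while test wells held 1nM USP1/UAF1 preincubated with compound for 15 min at room temperature. Ub-Rho at 150nM final started the reaction, and fluorescence at 480/540 nm was recorded kinetically.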

[2] = qHTS for Inhibitors of ATXN expression: Validation of Cytotoxic Assay (AID 588349);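 also: cells exposed to compound for 72 hr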
Outline: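 HEK293, compound dose series, 72 hr / 37 degrees C; viability via CellTiter Glo (intracellular ATP).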

[3] = molecular target: Androgen receptor (Homo sapiens) (UniProt P10275); assay: qHTS assay for small molecule agonists of androgen receptor signaling (AID 588515; active = well fitted curve in the direction sought with a large enough effect in the signal ratio, with a control signal flat; inconclusive = small, poorly fitted or top-dose-only effect, or effect the other way, or a change in a side signal; inactive = no such curve, though single readings can be large or run the other way; the % refers to the signal ratio; also: potency is read from the fitted curve at half-maximal effect); conditions: AR-UAS-bla HEK293, beta-lactamase ratio, agonist 16 h; activation: hits give high values
Chain of UniProt P10275 (P10275 whole entry, looked up): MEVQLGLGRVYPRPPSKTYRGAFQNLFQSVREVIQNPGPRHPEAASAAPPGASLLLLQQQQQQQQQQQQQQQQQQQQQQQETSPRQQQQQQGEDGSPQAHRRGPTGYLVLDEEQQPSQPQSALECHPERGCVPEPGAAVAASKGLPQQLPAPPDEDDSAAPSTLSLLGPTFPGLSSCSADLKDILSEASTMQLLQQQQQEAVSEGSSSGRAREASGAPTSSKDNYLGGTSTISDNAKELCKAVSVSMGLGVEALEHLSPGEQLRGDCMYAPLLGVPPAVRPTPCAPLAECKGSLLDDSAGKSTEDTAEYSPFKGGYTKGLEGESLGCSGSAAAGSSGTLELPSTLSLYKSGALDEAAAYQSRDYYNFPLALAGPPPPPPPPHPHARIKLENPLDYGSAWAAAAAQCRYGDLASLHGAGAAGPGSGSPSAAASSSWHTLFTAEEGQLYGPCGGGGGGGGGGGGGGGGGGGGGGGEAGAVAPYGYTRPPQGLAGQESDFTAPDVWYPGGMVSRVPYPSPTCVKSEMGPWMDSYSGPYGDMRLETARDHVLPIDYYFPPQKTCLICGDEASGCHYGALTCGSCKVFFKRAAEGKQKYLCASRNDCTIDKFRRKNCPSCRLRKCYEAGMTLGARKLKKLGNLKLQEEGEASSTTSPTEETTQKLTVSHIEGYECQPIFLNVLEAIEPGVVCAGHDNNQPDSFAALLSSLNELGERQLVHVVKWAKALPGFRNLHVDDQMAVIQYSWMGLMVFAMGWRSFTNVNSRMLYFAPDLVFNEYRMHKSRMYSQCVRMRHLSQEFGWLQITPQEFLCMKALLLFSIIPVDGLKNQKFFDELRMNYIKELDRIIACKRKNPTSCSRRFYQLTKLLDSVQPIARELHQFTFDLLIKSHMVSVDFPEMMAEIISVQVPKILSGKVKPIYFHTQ
Outline: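 EC50 and efficacy came from Hill fits of titrations (up to 92 uM) normalized to 30 nM R1881 as 100% and DMSO as 0%. Compound exposure was 16 h at 37 C on AR-UAS-bla HEK293 cells, with a 405/460/530 nm CCF4 fluorescence read.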

[4] = molecular target: Glucocorticoid receptor (Homo sapiens) (UniProt P04150); assay: qHTS assay for small molecule agonists of glucocorticoid receptor signaling (AID 588532; active = well fitted curve in the direction sought with a large enough effect in the signal ratio, with a control signal flat; inconclusive = small, poorly fitted or top-dose-only effect, or a change in a side signal; inactive = no such curve, though single readings can be large or run the other way; the % refers to the signal ratio; also: potency is read from the fitted curve at half-maximal effect); conditions: HeLa MMTV-bla, beta-lactamase ratio, agonist, 18 h; activation: hits give high values, percent of dexamethasone control, DMSO zero
Outline: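 Stimulation of a glucocorticoid response element-driven beta-lactamase gene was measured in HeLa cells. Responses were scaled between DMSO basal and 0.1 uM dexamethasone, then fitted for half-maximal stimulation.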

[5] = molecular target: Glucocorticoid receptor (Homo sapiens) (UniProt P04150); assay: qHTS assay for small molecule antagonists of glucocorticoid receptor signaling (AID 588533; active = well fitted inhibition curve with a large enough effect in the signal ratio, with a control signal flat, not every such curve was filed as active; inconclusive = small, poorly fitted or top-dose-only effect, or effect the other way, or a change in a side signal; the % refers to the signal ratio;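 also: cells stimulated with 2 nM dexamethasone as agonist; potency is read from the fitted curve at half-maximal effect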); conditions: HeLa MMTV-bla, GRE beta-lactamase ratio, antagonist mode, 18 h; activity change, negative = inhibition: at 76.8 µM (top of the series)
[6] = molecular target: Peroxisome proliferator-activated receptor delta (Homo sapiens) (UniProt Q03181); assay: qHTS assay for small molecule antagonists of peroxisome proliferator-activated receptor delta signaling (AID 588535; active = well fitted inhibition curve with a large enough effect in the signal ratio, with a control signal flat, not every such curve was filed as active; inconclusive = small, poorly fitted or top-dose-only effect, or effect the other way, or a change in a side signal; inactive = no such curve, though single readings can be large or run the other way; the % refers to the signal ratio; also: potency is read from the fitted curve at half-maximal effect); conditions: HEK293T PPARd-UAS-bla, beta-lactamase FRET ratio, 18 h; activity change, negative = inhibition: at 76.7 µM (top of the series) unless noted
Chain of UniProt Q03181 (Q03181 whole entry, looked up): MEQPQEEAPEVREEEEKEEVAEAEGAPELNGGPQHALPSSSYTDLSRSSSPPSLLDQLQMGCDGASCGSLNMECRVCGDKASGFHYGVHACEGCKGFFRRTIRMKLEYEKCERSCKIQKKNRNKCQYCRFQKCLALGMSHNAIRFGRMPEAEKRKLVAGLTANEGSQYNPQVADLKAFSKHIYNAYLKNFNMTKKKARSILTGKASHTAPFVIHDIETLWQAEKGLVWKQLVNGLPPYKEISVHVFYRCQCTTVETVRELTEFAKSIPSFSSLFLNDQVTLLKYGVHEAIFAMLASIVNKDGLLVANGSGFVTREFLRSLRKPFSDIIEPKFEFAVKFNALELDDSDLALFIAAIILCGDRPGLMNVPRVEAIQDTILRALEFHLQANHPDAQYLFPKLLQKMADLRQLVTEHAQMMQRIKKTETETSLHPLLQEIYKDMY
Outline: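 GeneBLAzer PPAR-delta-UAS-bla HEK293T cells in medium with 2% charcoal/dextran FBS were preincubated 5 hrs at 37 C, then given compounds, incubated 18 hrs at 37 C, and read by CCF4 beta-lactamase fluorescence; IC50 from Hill fits.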

[7] = molecular target: Peroxisome proliferator-activated receptor gamma (Homo sapiens) (UniProt P37231); assay: qHTS assay for small molecule agonists of peroxisome proliferator-activated receptor gamma signaling (AID 588536; active = well fitted curve in the direction sought with a large enough effect in the signal ratio, with a control signal flat, not every such curve was filed as active; inconclusive = small, poorly fitted or top-dose-only effect, or effect the other way, or a change in a side signal; inactive = no such curve, though single readings can be large or run the other way; the % refers to the signal ratio; also: potency is read from the fitted curve at half-maximal effect); conditions: HEK293 PPARg-UAS-bla, beta-lactamase ratio, 16 h; activation: at 76.7 µM (top of the series), percent of rosiglitazone response, DMSO as zero
Outline: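 HEK293 UAS-bla reporter line, 1% charcoal/dextran FBS; titration, 16 h, 37 C; CCF4 loading 2 h RT; fluorescence 460/530 nm. Normalized to rosiglitazone 2 uM = 100%, DMSO = 0%.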

[8] = molecular target: Peroxisome proliferator-activated receptor gamma (Homo sapiens) (UniProt P37231); assay: qHTS assay for small molecule antagonists of peroxisome proliferator-activated receptor gamma signaling (AID 588537; active = well fitted inhibition curve with a large enough effect in the signal ratio, with a control signal flat, not every such curve was filed as active; inconclusive = small, poorly fitted or top-dose-only effect, or effect the other way, or a change in a side signal; the % refers to the signal ratio; also: potency is read from the fitted curve at half-maximal effect;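 also: reporter cells co-stimulated with 50 nM rosiglitazone agonist during compound treatment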); conditions: HEK293 PPARg-UAS-bla, beta-lactamase ratio, antagonist mode; activity, negative = inhibition: at 76.8 µM (top of the series)
Outline: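 PPAR-gamma-UAS-bla HEK293 cells (3000/well, 1% charcoal/dextran-stripped FBS) were preincubated 6-6.5 h at 37 C, given titrated compounds, then stimulated with 50 nM rosiglitazone for 16 h. Beta-lactamase activity was read with CCF4 dye; IC50 came from Hill fits.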

[9] = molecular target: Vitamin D3 receptor (Homo sapiens) (UniProt P11473); assay: qHTS assay for small molecule antagonists of vitamin D receptor signaling (AID 588541; calls by dose curve; also: potency is read from the fitted curve at half-maximal effect); conditions: HEK293T VDR-UAS-bla, beta-lactamase ratio, antagonist mode; activity change, negative = inhibition: at 76.7 µM (top of the series)
[10] = molecular target: Estrogen receptor (Homo sapiens) (UniProt P03372); assay: qHTS assay for small molecule antagonists of estrogen receptor alpha signaling (AID 588513; active = well fitted curve in the direction sought with a large enough effect in the signal ratio, with a control signal flat, not every such curve was filed as active; inconclusive = small, poorly fitted or top-dose-only effect, or effect the other way, or a change in a side signal; inactive = no such curve, though single readings can be large or run the other way; the % refers to the signal ratio; also: potency is read from the fitted curve at half-maximal effect); conditions: ER-alpha-UAS-bla HEK293, beta-lactamase ratio, antagonist mode; activity, negative = inhibition: at 76.9 µM (top of the series) unless noted
Chain of UniProt P03372 (P03372 whole entry, looked up): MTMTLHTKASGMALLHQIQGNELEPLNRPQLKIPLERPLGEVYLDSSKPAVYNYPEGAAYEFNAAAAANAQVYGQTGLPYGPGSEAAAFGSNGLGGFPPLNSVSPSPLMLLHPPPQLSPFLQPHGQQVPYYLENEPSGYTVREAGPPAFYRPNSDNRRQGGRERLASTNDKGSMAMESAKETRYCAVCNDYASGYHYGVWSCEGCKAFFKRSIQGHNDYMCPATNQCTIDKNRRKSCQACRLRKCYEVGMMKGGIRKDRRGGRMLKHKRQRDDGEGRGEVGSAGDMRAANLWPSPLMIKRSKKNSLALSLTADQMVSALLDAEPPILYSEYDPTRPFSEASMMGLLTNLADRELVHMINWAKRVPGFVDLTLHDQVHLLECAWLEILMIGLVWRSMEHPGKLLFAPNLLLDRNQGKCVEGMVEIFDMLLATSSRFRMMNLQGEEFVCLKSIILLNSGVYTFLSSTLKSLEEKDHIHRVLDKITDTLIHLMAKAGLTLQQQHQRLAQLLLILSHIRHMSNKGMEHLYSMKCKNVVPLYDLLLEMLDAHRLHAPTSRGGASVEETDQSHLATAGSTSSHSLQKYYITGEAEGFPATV
Outline: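 Antagonist-mode qHTS in ER-alpha-UAS-bla HEK 293 cells: compound titration, 0.5nM estradiol for 18 h, CCF4 fluorescence, Hill-derived IC50.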

[11] = molecular target: Estrogen receptor (Homo sapiens) (UniProt P03372); assay: qHTS assay for small molecule agonists of estrogen receptor alpha signaling (AID 588514; calls by dose curve; also: potency is read from the fitted curve at half-maximal effect; nearly all actives have a fitted effect of over 70% in size); conditions: ER-alpha-UAS-bla HEK293, beta-lactamase ratio, 18 h; activation: at 76.8 µM (top of the series), percent of full estradiol response, vehicle zero unless noted
Outline: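 Reporter-gene assay. […] controls beta-lactamase in HEK 293 GripTite cells; after 18 hrs with compound, CCF4 substrate is added for 2 hrs and fluorescence is read.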
Tags tell the direction and shape of the fitted curve or compound fluorescence and quenching.

Question: Which Potency [1] does the source give for CCCN1CCC[C@@H]2Cc3nc(N)ncc3C[C@H]21 here?
Answer: Its Potency is “inactive”.

Question: What about the Potency [2] of the same molecule?
Answer: Its Potency is “inactive”.

Question: With C[CH2][Hg][S]c1ccccc1C(=O)O as the molecule, how does the Potency [1] read?
Answer: Its Potency is inconclusive [inhibitor, partial curve].

Question: And the Potency [3]?
Answer: The Potency was inconclusive [side channel, rising, single point].

Question: And the Potency [4]?
Answer: The Potency was inconclusive [side channel, rising, partial curve, poor fit].

Question: And the Potency [5]?
Answer: Its Potency is inconclusive [inhibitor, partial curve, poor fit].

Question: What about the Potency [6] of the same molecule?
Answer: The Potency was inconclusive [side channel, rising, full curve].

Question: What about the Potency [7] of the same molecule?
Answer: Its Potency is inconclusive [side channel, falling, partial curve, poor fit].

Question: And the Potency [8]?
Answer: The Potency was inconclusive [side channel, rising, single point].

Question: And the Potency [9]?
Answer: The Potency was inconclusive [inhibitor, full curve].

Question: Which Potency [1] does the source give for CCNc1nc(Cl)nc(NCC)n1 here?
Answer: The Potency was “inactive”.

Question: And the activity, negative = inhibition [10]?
Answer: The activity, negative = inhibition was inconclusive: -30.1%.

Question: And the Potency [8]?
Answer: Its Potency is “inactive”.

Question: Which results are given for CCCCCCCCCCCC[N+](C)(C)CCOc1ccccc1?
Answer: Potency [1]: active: 79.4 µM; Potency [10]: active: 12.6 µM [inconclusive]; Potency [11]: inconclusive [rising, single point]; Potency [4]: inconclusive [side channel, falling, partial curve, poor fit]; Potency [6]: inconclusive [fluorescent, side channel, single point]; Potency [7]: inconclusive [inhibitor, single point]; activity, negative = inhibition [8]: inconclusive: -40.5%

Question: For CCCCCCCCCCCCCCCC[N+](C)(C)C, which Potency [1] is on record?
Answer: The Potency was active: 22.4 µM and active: 31.6 µM.

Question: What about the Potency [4] of the same molecule?
Answer: The Potency was inconclusive [side channel, falling, single point].

Question: What about the Potency [6] of the same molecule?
Answer: The Potency was inconclusive [fluorescent, side channel, partial curve, poor fit].

Question: What about the Potency [7] of the same molecule?
Answer: Its Potency is inconclusive [cytotoxic, side channel, partial curve].

Question: And the activation [7]?
Answer: Its activation is inconclusive: 9.88%.

Question: And the Potency [8]?
Answer: The Potency was “inactive”.

Question: What about the Potency [9] of the same molecule?
Answer: Its Potency is inconclusive [inhibitor, single point].
